In all, about 110,000 compounds went through this assay and about 230 (0.21%) showed an effect of 50% or more. The list shows a part of the results.
What follows are molecules tested against DPAP1 (Plasmodium falciparum, UniProt Q8IIJ9) (assay: primary screen, percent inhibition; read by cleavage of a fluorogenic dipeptide substrate; higher = more effect of the substance).
Set-up: species or system P. falciparum D10 trophozoite lysates; single well
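Also: 30 min substrate incubation versus DMSO and 10 µM JCP410 controls.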

DPAP1, sequence (Q8IIJ9 whole entry, looked up): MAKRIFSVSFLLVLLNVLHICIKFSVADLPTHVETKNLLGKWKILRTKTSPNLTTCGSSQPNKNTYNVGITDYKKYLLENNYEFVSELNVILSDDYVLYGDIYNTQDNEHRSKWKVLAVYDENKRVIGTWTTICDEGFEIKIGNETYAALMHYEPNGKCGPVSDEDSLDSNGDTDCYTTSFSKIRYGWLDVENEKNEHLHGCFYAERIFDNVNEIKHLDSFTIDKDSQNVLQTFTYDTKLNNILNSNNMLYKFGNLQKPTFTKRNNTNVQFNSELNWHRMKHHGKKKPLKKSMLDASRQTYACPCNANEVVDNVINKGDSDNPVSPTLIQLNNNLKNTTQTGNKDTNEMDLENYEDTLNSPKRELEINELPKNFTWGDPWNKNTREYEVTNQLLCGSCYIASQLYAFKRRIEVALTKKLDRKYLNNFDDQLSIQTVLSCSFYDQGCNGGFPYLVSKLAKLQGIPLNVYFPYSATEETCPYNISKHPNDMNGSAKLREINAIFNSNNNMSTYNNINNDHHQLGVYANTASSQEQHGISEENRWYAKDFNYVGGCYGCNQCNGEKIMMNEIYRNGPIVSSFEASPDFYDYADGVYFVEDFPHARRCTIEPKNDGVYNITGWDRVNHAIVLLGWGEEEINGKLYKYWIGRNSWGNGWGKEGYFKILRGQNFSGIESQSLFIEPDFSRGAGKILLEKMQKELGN

Row | SMILES | % Inhibition @ 10 uM [%]
1 | O=C(COc1ccc(Br)cc1)NCCN1CCCC1 | -0.0619
2 | O=C(Nc1sc2c(c1CN1CCCCCC1)CCCC2)c1ccccc1 | -2.21
3 | COc1ccccc1C(=O)n1nc(C)cc1C | 1.91
4 | CC1CN(Cc2ccccc2Cl)CC(C)O1 (centres unmarked) | 5.06
5 | COc1cc(CN2CCC(Cc3ccccc3)CC2)cc2c1OCO2 | -8.01
6 | CCN1CCCC1CNC(=O)Cn1ncc2c3ccccc3n(Cc3ccc(F)cc3)c2c1=O (centres unmarked) | -5.19
7 | Cc1cc(N2CCCCCC2)nc2ccccc12 | 0.51
8 | CC(CCCC(C)(C)O)NC1CCC(C(C)(C)C)CC1 (centres unmarked) | -3.27
9 | COc1ccc(CCN2C(=O)CN(CCc3ccccc3)CC2=O)cc1OC | -1.74
10 | C=CCn1c(=N)c(C#N)cc2c(=O)n3cccc(C)c3nc21 | -2.77
11 | CCN(CC)CCNC(=O)c1ccc(CS(=O)(=O)Cc2cccc(C)c2)o1 | -2.72
12 | Cc1ccc(S(=O)(=O)N(Cc2ccccc2)C(C)(C)C)cc1 | -3.65
13 | CCCN(CCO)C/C(Cl)=C/c1ccccc1 | 2.5
14 | Cc1cccc(NC(=O)CN(Cc2ccc(F)cc2)S(=O)(=O)c2ccccc2)c1C | 0.583
15 | COc1ccc(CC(=O)Nc2c(-c3ccc(F)cc3)nc3ccccn23)cc1 | -3.48
16 | CCOC(=O)c1c(-c2ccccc2)csc1NC(=O)c1cc(C2CC2)on1 | 1.23
17 | Cc1nn(-c2ccccc2)c2c1N(CC(=O)NCCc1ccc(Cl)cc1)C(=O)CS2 | -6.5
18 | CCCCN(CC)CCNC(=O)C1c2ccccc2C(=O)N(CCOC)C1c1cccs1 (centres unmarked) | 2.16
19 | CCN(CCCNC(=O)c1cn(CCOC)c(=O)c2c1c1ccccc1n2C)Cc1ccccc1 | 0.0221
20 | CC(C)C[C@H](NC(=O)c1ccc(-c2cccc(C(F)(F)F)c2)o1)C(=O)NCC#N | 5.05
21 | CCN(CC)CCNC(=O)Nc1cn(CC(C)C)c(=O)c2ccccc12 | -2.71
22 | CCOc1ccc(NC(=O)COc2ccc(C)c(C)c2)cc1 | 0.661
23 | CCCOc1ccc(C(=O)Nc2ccc(NC(=O)c3cccs3)cc2)cc1 | 4.94
24 | Cc1cc(C)c(S(=O)(=O)Nc2ccccc2C(F)(F)F)c(C)c1 | 4.03
25 | COc1ccc(CN(C)C2CCN(C)CC2)c(OC)c1 | -6.47

Row | SMILES | % Inhibition @ 10 uM [%]
26 | COC(=O)Nc1ccc2c(c1)N(C(=O)CCN1CCOCC1)c1ccccc1CC2 | -1.32
27 | OC(c1ccccc1)c1nc2ccccc2n1Cc1ccc(F)cc1 (centres unmarked) | -2.5
28 | Cc1oc(-c2ccc(Cl)cc2)nc1CN1CCC(C(=O)NC(C)c2ccccc2)CC1 (centres unmarked) | -1.05
29 | CCOC(=O)c1c(NC(=O)c2cc(-c3ccc(O)cc3)on2)sc2c1CCCC2 | 0.723
30 | CC(=O)N1c2ccccc2C2(CC(=O)N(Cc3ccccc3)C2=O)C1/C=C/c1ccccc1 (centres unmarked) | 5.61
31 | OCC1CCCN1Cc1ccc(F)c(F)c1 (centres unmarked) | -2.95
32 | Cc1ccc2c(CC(=O)O)coc2c1C | -1.11
33 | COc1cc2c(CC(=O)Nc3ccccc3)c(O)c(C)c(NCc3ccccc3)c2cc1OC | 13.4
34 | CCc1ccc(-n2nnc(-c3nc(-c4ccccc4)no3)c2N)cc1 | -6.26
35 | CCC(=O)OC1(c2ccccc2)CCN(C)C(C)C1C (centres unmarked) | -1.91
36 | COc1ccc(Cl)cc1NC(=O)CN(C)S(=O)(=O)c1c(C)cc(C)cc1C | -4.12
37 | COc1cc(OC)c2c(C)c(C(=O)c3ccccc3)oc2c1 | -0.25
38 | CC(C)(C)C1(C)OC(=O)C(=Cc2ccc(C(=O)O)cc2)C(=O)O1 (centres unmarked) | 3.47
39 | CCc1ccc(N2C(=O)CC(N3CCC(C(N)=O)CC3)C2=O)cc1 (centres unmarked) | 3.86
40 | CCN1CCN(c2ccc(NC(=O)Cc3ccccc3)cc2)CC1 | 2.84
41 | CCOc1ccc(NC(=O)CCc2ccccc2)cc1 | 0.431
42 | COc1ccc2ncc(S(=O)(=O)c3ccc(C)cc3)c(N3CCN(C)CC3)c2c1 | -9.48
43 | COc1cccc(NC(=O)c2cnccn2)c1 | -1.96
44 | COc1ccccc1CNC(=O)c1ccc(F)cc1 | 2.26
45 | CC(C)N(Cc1nc(-c2ccc(Cl)cc2)no1)C(=O)/C=C/c1ccccc1 | 4.41
46 | CCCC(C(=O)c1ccccc1)n1cncn1 (centres unmarked) | 1.31
47 | CCCOC(=O)c1sc2nc3c(cc2c1N)CN(C)CC3 | -1.08
48 | C=CCN1C(=O)NC(=O)/C(=C/c2ccc(-c3ccc(C(=O)OCC)cc3)o2)C1=O | 1.58
49 | CCOC(=O)C1=C(C)N(CCOC)C(=O)/C1=C\c1ccc(C)cc1 | -1.04
50 | O=C(C1=C(O)C(=O)N(c2cccnc2)C1c1ccccc1)c1ccccc1 (centres unmarked) | 0.727

Source: publication PMC6919601, “Identification of Plasmodium dipeptidyl aminopeptidase allosteric inhibitors by high throughput screening” (PLoS ONE, 2019)
